Measurements from patent US20070077609A1 (STANFORD UNIVERSITY, published 2007).

Assays:
[1] = target: T1, GFP^2-FRB fusion protein (FRB fused to the C-terminus of GFP^2) (human, UniProt P42345 2021-2113); experiment: BRET^2 time course in co-transfected 293T cells; 70 h, about 40 h after rapamycin was withdrawn
T1 construct: Expressed inside transfected cells; also called pGFP^2-FRB; GFP-F; not shown: mutant green fluorescent protein GFP^2 from bought pGFP^2-C3 vector (Perkin Elmer)
Method: (§1) FIG. 4D illustrates a chart showing dynamic nature of a BRET signal. 293T cells transfected with pFKBP12-hRluc and pGFP²-FRB plasmids in a 1:1 ratio were distributed in equal numbers in a 24 well plate. The dashed line represents the BRET² ratio over time, where transfected cells were maintained throughout with rapamycin (160 nM). The solid line represents the BRET² ratio over time, where rapamycin was added and withdrawn at different time points from the incubating media of the transfected cells. As shown by the cross-hatched zone on the X-axis marked as +R or −R, rapamycin was added to the experimental cells after first scanning at 24 hours. After 6 hours incubation another scan was performed (30 hours).
(§2) To elucidate the dynamic nature of the BRET system, 293T cells co-transfected with pFKBP12-hRluc and pGFP²-FRB were repeatedly imaged by adding and withdrawing rapamycin in succession at different time points from the incubating medium. As control, the same transfected cells were constantly maintained in rapamycin containing media. […] Once rapamycin is added in the medium, it takes about 40 hours to have the BRET² ratio come down to 0.17 in rapamycin free condition.

[2] = target: T1, GFP^2-FRB fusion protein (FRB fused to …); experiment: BRET^2 time course in co-transfected 293T cells; 78 h, 8 h after rapamycin was added again
Method: as §1, §2

[3] = target: T1, GFP^2-FRB fusion protein (FRB fused to …); experiment: BRET^2 time course in co-transfected 293T cells; 24 h, before rapamycin was added
Method: as §1, §2

[4] = target: T1, GFP^2-FRB fusion protein (FRB fused to …); experiment: BRET^2 time course in co-transfected 293T cells; 30 h, after 6 h with rapamycin
Method: as §1, §2

T1 sequence (P42345 2021-2113): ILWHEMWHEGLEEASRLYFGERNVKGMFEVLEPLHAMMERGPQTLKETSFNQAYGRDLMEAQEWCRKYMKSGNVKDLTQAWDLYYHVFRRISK

B1: FKBP12-RLUC fusion protein (FKBP12 fused to the N-terminus of hRluc) (other)
chain: [letters of about 100 residues not shown]MASKVYDPEQRKRMITGPQWWARCKQMNVLDSFINYYDSEKHAENAVIFLHGNAASSYLWRHVVPHIEPVARCIIPDLIGMGKSGKSGNGSYRLLDHYKYLTAWFELLNLPKKIIFVGHDWGACLAFHYSYEHQDKIKAIVHAESVVDVIESWDEWPDIEEDIALIKSEEGEKMVLENNFFVETMLPSKIMRKLEPEEFAAYLEPFKEKGEVRRPTLSWPREIPLVKGGKPDVVQIVRNYNAYLRASDDLPKMFIESDPGFFSNAIVEGAKKFPNTEFVKVKGLHFSQEDAPDEMGKYIKSFVERVLKNEQ
notes: Expressed inside transfected 293T, N2a or A375M cells; also called FKBP12-hRluc; pFKBP12-hRluc
BRET^2 ratio [1]: 0.17
BRET^2 ratio [2]: 0.79
BRET^2 ratio [3]: 0.29
BRET^2 ratio [4]: 1.16
